In the supplement of paper PMC10126150 one finds switch fluorescence ratio data, which are given here for 67 sequences.

In this data set the test system is ATP. Description: switch fluorescence ratio, 500 uM ATP over buffer (Cy3 cluster intensity, sum of 5 cycles each) (fold (ratio)); higher = stronger signal-on switching upon ATP binding; sequences stand for … in TCGTCGGCAGCGTCAGATGTGTATAAGAGACAGTTTTTTTTTTTTTTTTTTTTTTTTT…TC. As to conditions: aptamer strand: ATP DNA aptamer (quencher-CACCTGGGGGAGTATTGCGGAGGAAGG + anchor), 100 nM annealed; ATP concentration: 500 uM; one replicate. Put shortly:
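The quencher-labelled ATP aptamer, at 100 nM, was annealed to Cy3-labelled switching-strand clusters on a modified Illumina MiSeq flow-cell. The clusters were imaged in selection buffer, then after 15 min with 500 uM ATP at 22 °C, and this buffer/ATP cycle ran five times with NaOH stripping and re-annealing between runs. Per-cluster fluorescence ratios, summed target-cycle over summed buffer-cycle Cy3 intensity, were averaged per switch-domain sequence. Clusters outside 100-1000 RFU were excluded.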

Values marked as one replicate rest on one cluster of the flow cell; about a third of the high ones do not repeat.
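Further: ATP exposure 15 min at 22 °C before imaging.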

Turning to CCGAGTGGTT, the switch fluorescence ratio worked out at 1.04.

As for GTTCAAAGTG, the switch fluorescence ratio is 0.979.

For the sequence TAGGTTGGA, the switch fluorescence ratio was determined as 1.02.

As for GTCGCTTAAA, the switch fluorescence ratio was 0.995.

As to AACGTAATTT, the switch fluorescence ratio came out at 1.16.

In the case of ATGTGCACGC, the switch fluorescence ratio stood at 0.972.

As to CATACGTGTT, the switch fluorescence ratio amounted to 1.04.

For the sequence CATCATACAG, the switch fluorescence ratio was determined as 1.03.

Turning to CAACTTTTCT, the switch fluorescence ratio came out at 1.03.

For the sequence TAAAACAAG, the switch fluorescence ratio was determined as 0.996.

For the sequence TCTAAGTTCC, the switch fluorescence ratio was determined as 0.993.

Take CCTGCCAGAG: the switch fluorescence ratio turned out to be 1.28.

For GTACTTTCTT, the switch fluorescence ratio stood at 0.983.

Regarding AGTTAGCGCC, the switch fluorescence ratio was 1.08.

In the case of CGTACGCAGT, the switch fluorescence ratio was determined as 1.84.

Take AATCAAATGG: the switch fluorescence ratio is 1.05.

Consider ACGTGTCGGC, for which the switch fluorescence ratio amounted to 1.02.

With AGTGTCTGGC, the switch fluorescence ratio was 1.02.

With TGAGTAAATT, the switch fluorescence ratio came to 1.01.

With CCTTTCATCG, the switch fluorescence ratio turned out to be 1.25.

In the case of GGGTTAGGCT, the switch fluorescence ratio was 1.02.

Regarding GATGGTCAGT, the switch fluorescence ratio was determined as 1.01.

TGATTGGAAA: the switch fluorescence ratio worked out at 0.938.

With AGTGAAATTT, the switch fluorescence ratio stood at 0.996.

On to TCTACAGGG, for which the switch fluorescence ratio is 0.97.

As for TAGAACGTGG, the switch fluorescence ratio is 0.984.

With CAGGCATGTC, the switch fluorescence ratio amounted to 1.05.

Consider TGGGGCAAAA, for which the switch fluorescence ratio turned out to be 0.993.

For AAATTCACGA, the switch fluorescence ratio was 1.03.

Consider AGAGAACATG, for which the switch fluorescence ratio is 0.975.

As to CGTTTGGTA, the switch fluorescence ratio stood at 0.962.

For ATACACGGAT, the switch fluorescence ratio came to 1.03.

Regarding GACGGCGCAC, the switch fluorescence ratio is 1.21.

With ATTGGGACGT, the switch fluorescence ratio amounted to 0.957.

AAATATTTAA: the switch fluorescence ratio stood at 0.963.

Take GCATCGACCT: the switch fluorescence ratio amounted to 1.28.

As for TACCTTGCTC, the switch fluorescence ratio amounted to 2.81.

CTGACTTGTG: the switch fluorescence ratio was 0.961.

GAAAACAGAT: the switch fluorescence ratio turned out to be 0.992.

As to TCTCGTTTGA, the switch fluorescence ratio was 0.985.

For CGTCATGGTT, the switch fluorescence ratio was 0.996.

On to TATTAGTTAG, for which the switch fluorescence ratio is 0.995.

For TATTTTTTCA, the switch fluorescence ratio turned out to be 1.

ATCCCACTAG: the switch fluorescence ratio turned out to be 1.1.

Regarding TGCGGGGATG, the switch fluorescence ratio was determined as 1.08.

On to AAATTACCAC, for which the switch fluorescence ratio was 1.1.

Regarding GCAATACAGG, the switch fluorescence ratio stood at 5.4.

With ATGAGGCCGA, the switch fluorescence ratio came out at 0.978.

Take TTCACTAAGT: the switch fluorescence ratio is 1.02.

As for TGTCACATCA, the switch fluorescence ratio was 1.04.

Turning to AGTTCGTGG, the switch fluorescence ratio was 1.04.

On to CCAGAGAT, for which the switch fluorescence ratio was 1.02.

In the case of TCACGGGGAT, the switch fluorescence ratio worked out at 0.995.

As for CGGTGGCCCT, the switch fluorescence ratio amounted to 0.98.

GGCATGAAGG: the switch fluorescence ratio is 1.03.

For TCGGACTATG, the switch fluorescence ratio came out at 1.04.

In the case of GCTTGTTCAG, the switch fluorescence ratio amounted to 0.965.

On to CTAATAAGAG, for which the switch fluorescence ratio worked out at 1.03.

For ATGCTGCAA, the switch fluorescence ratio was 1.43.

AGGATTCTCC: the switch fluorescence ratio stood at 0.986.

CTTTCTACGG: the switch fluorescence ratio turned out to be 1.26.

With TCGCAAAAGT, the switch fluorescence ratio worked out at 1.33.

On to TCAGACGG, for which the switch fluorescence ratio is 1.

Consider TTGGCAGAGC, for which the switch fluorescence ratio was determined as 1.05.

As for CCCGGGGGTA, the switch fluorescence ratio is 0.95.

Regarding GGGGTTATC, the switch fluorescence ratio was determined as 0.934.

Turning to CTAGGGTCT, the switch fluorescence ratio is 0.964.
